In publication PMC4336329 (PLoS ONE, 2015):
Out of some 310,000 compounds screened, about 2,200 (0.71%) showed an effect of 50% or more. Effects have a minus sign here. The list shows a part of the results.

What follows are molecules tested against human ether-à-go-go-related gene (hERG) potassium channel (human, UniProt Q12809) (assay: primary screen, population patch clamp on CHO cells stably expressing hERG).
Sequence of human ether-à-go-go-related gene (hERG) potassium channel (Q12809 whole entry, looked up): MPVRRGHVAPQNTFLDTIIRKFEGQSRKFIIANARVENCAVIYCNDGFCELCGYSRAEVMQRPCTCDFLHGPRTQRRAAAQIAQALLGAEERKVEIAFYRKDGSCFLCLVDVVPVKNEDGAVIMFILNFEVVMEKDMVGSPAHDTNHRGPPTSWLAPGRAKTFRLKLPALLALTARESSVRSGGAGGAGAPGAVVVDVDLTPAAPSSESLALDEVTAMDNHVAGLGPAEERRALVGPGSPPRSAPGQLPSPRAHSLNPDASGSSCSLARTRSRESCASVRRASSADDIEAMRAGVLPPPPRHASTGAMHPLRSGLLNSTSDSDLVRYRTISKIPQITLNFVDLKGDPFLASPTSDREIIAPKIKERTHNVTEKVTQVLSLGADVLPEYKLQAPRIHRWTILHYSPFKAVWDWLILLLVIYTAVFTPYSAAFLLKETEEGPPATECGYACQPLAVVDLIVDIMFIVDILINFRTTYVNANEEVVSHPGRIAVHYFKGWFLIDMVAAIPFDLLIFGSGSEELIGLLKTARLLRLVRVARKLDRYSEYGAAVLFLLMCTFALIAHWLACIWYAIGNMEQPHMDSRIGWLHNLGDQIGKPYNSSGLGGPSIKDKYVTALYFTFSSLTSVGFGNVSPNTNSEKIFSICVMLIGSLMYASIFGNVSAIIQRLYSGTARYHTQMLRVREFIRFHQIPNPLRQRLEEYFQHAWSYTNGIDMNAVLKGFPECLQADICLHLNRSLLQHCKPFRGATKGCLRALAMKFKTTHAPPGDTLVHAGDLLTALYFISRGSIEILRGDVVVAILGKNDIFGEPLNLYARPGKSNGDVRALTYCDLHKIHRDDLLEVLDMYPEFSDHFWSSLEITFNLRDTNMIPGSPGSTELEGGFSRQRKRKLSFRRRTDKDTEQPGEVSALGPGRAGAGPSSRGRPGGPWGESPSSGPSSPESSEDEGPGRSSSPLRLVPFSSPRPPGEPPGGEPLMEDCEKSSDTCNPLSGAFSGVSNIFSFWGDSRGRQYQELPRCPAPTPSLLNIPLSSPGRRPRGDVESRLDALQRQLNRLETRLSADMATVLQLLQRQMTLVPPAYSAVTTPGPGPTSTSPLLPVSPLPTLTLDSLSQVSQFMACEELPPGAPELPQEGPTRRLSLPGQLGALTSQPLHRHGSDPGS

| SMILES | hERG current change (%, negative = inhibition) at 1uM |
| --- | --- |
| CCn1cnnc1SCC(=O)NCC1COc2ccccc2O1 (centres unmarked) | 16% |
| CCn1c(SCC(=O)Nc2ccc(F)cc2)nc2ccccc2c1=O | 8.8% |
| O=C(CNC(=O)c1ccc(OC(F)F)cc1)NC1CCCc2ccccc21 (centres unmarked) | -6.84% |
| Nc1nc(SCC(=O)NC2CCCc3ccccc32)n[nH]1 (centres unmarked) | 0.283% |
| O=C(O)c1cc(NN=Nc2ccc(Br)cc2)cc([N+](=O)[O-])c1 | 9.75% |
| COc1ccc(C(=O)NNC2=NC(C)(C)Cc3ccccc32)cc1 | 11.7% |
| CCOC(=O)c1cnc(SC2CC(=O)N(c3cccc(OC)c3)C2=O)nc1N (centres unmarked) | 11.3% |
| CCCc1cc(=O)oc2c(C)c(OCC(=O)Nc3cccnc3)ccc12 | -38.7% |
| CCOc1ccccc1CN1CCN(C2CCOCC2)CC1CCO (centres unmarked) | 8.63% |
| COc1ccc(S(=O)(=O)NCCCCCC(=O)NCCCN2CCOCC2)cc1 | -1.78% |
| CC(C)[C@H](NC(=O)CCCn1nnc2ccccc2c1=O)C(=O)O | 13.1% |
| COc1cc(/C=C2\SC(N3CCCCC3)=NC2=O)cc(OC)c1OC | 11.4% |
| COc1ccc(-n2c(=S)[nH]c3ccccc3c2=S)cc1 | 14.5% |
| CN(C)CCNC(=O)COc1cccc(Cl)c1 | 8.77% |
| CC(C)(C)NC(=O)c1ccnc(C(C)(C)C)c1 | -3.05% |
| COCCNC(=O)C(c1cccs1)N(Cc1cccs1)C(=O)Cn1nnc2ccccc21 (centres unmarked) | 1.44% |
| O=C(NCCOC(=O)c1ccncc1)c1ccccc1 | 5.93% |
| CCCCN1C(=O)C(=Nc2cccc3cnccc23)c2ccccc21 | 2.92% |
| O=[N+]([O-])c1nn(-c2ccccc2)n(O)c1=NCc1ccc2c(c1)OCO2 | 7.34% |

| SMILES | hERG current change (%, negative = inhibition) at 1uM |
| --- | --- |
| Cn1c2ccccc2c2c(C(=O)O)cn(C3CCCC3)c(=O)c21 | 3.19% |
| Cn1nc(CC(=O)NCCN2C(=O)CSC2=O)c2ccccc2c1=O | -11% |
| CC(CCc1ccccc1)NC(=O)c1ccncc1 (centres unmarked) | 10.8% |
| O=C(NC(=O)N1CCN(c2ccc([N+](=O)[O-])cn2)CC1)c1ccccc1F | -10.8% |
| Cc1cc(C)c(NC(=O)CSc2nc3ccccc3c(=O)n2CCCN2CCOCC2)c(C)c1 | -2.92% |
| Cc1cccc(NC(=O)c2cc(S(=O)(=O)N(C)c3ccc(F)cc3)ccc2Cl)n1 | -11.1% |
| COc1ccc(S(=O)(=O)Nc2cccc(S(=O)(=O)N3CCCCCC3)c2)cc1 | 0.78% |
| CC(=O)Nc1ccc(OCC(=O)N2CCc3ccccc3C2)cc1 | 17% |
| CCc1ccc(NC(=O)NCc2cccnc2)cc1 | 7.5% |
| COc1cc(C2(c3ccc(O)c(OC)c3)C(=O)Nc3c(Br)cc(Br)cc32)ccc1O | 20.4% |
| Cc1ccc(C(=O)CN(CCC(=O)O)S(=O)(=O)c2ccc([N+](=O)[O-])cc2)cc1 | 5.9% |
| CCOc1ccc(CNC(=O)C(C)n2nc(C)c3c(C)n(-c4ccccc4)nc3c2=O)cc1 (centres unmarked) | 4.25% |
| CC1CCCCN1C(=O)CSCC(=O)Nc1nc(-c2cccs2)cs1 (centres unmarked) | 10.4% |
| O=C(NC1CCCCC1)N(CCN1CCOCC1)Cc1cc2cc3c(cc2[nH]c1=O)OCCO3 | 2.23% |
| Cn1c(CCCNC(=O)c2cccs2)nc2ccccc21 | 7.01% |
| Cc1ccc(CNC(=O)C2C3C=CC(C3)C2C(=O)O)cc1 (centres unmarked) | 6.82% |
| CC(CCc1ccccc1)NCc1ccc(Cl)cc1Cl.O=C(O)C(=O)O (centres unmarked) | 10.1% |
| COc1ccc(-n2c(C)cc(-c3csc(NC(=O)c4ccc(S(=O)(=O)N(C)C)cc4)n3)c2C)cc1 | 12.3% |
| O=C(c1ccc([N+](=O)[O-])c(CS(=O)(=O)c2ccc(Cl)cc2)c1)N1CCCC1 | -8.55% |

| SMILES | hERG current change (%, negative = inhibition) at 1uM |
| --- | --- |
| O=C(Nc1nc(-c2cccs2)c(-c2ccccc2)s1)c1ccco1 | 10.7% |
| O=C(Cn1nc2n(c1=O)-c1ccccc1SC2)N/N=C/c1ccncc1 | 3.06% |
| CCOc1ccc(/C=C/c2nc(C#N)c(NCCCOC)o2)cc1 | 16.4% |
| CC(C)c1cc(CNC(=O)c2ccc(OC3CCN(Cc4ccccn4)CC3)cc2)on1 | 15.6% |
| COc1ccc(C(=O)Nc2ccc3[nH]ccc3c2)cc1OC | 5.08% |
| Cc1ccc(-c2nc3ccccc3c(=O)n2NC(=S)N(C)C)cc1 | 12.3% |
| COc1ccccc1OCCNC(=O)CN(c1cccc(C)c1)S(=O)(=O)c1ccccc1 | -7.19% |
| Cc1cccc(NC(=S)NC(=O)c2ccc(Br)o2)c1C | -11.8% |
| Br.COc1ccc(Nc2nc(-c3ccc(OC)cc3)cs2)cc1 | 8.46% |
| COc1ccc(Cl)cc1S(=O)(=O)N1CCCC(C(=O)NCC(N)=O)C1 (centres unmarked) | -2.92% |
| O=C(NCc1ccc2c(c1)OCO2)c1ccc(Br)cc1 | 5.47% |
| CN1C(=O)C2C[C@@]3(Br)c4ccccc4N(OOSc4ccccc4)[C@H]3N2C(=O)[C@@H]1Cc1ccccc1 (some centres unmarked) | 9.7% |
| O=C1/C(=C/c2ccncc2)N2CCC1CC2 | 10.3% |
| O=C(O)Cn1c2c(c3ccccc31)CCCC2 | 13.7% |
| COc1ccc(/C=N/NC(=S)Nc2ccccc2)cc1COc1ccc(F)cc1 | 2.01% |
| COc1cc(C2c3[nH]c4ccccc4c3C[C@H]3C(=O)N(C4CC4)CC(=O)N23)ccc1OC(C)C (some centres unmarked) | 9.23% |
| O=C(CSc1nc2c(sc3ccccc32)c(=O)n1Cc1ccccc1)NCC1CCCO1 (centres unmarked) | 22.3% |
| O=C(Nc1cccc(-c2cn3cccnc3n2)c1)c1ccco1 | 9.68% |
